# “And” between values parts separate entries of the source, which are not always exact repeats. Equal values may be shown once. The inconclusive results got no clear call from the source; some entries with a clear call stand among them for comparison. For part of these data: Where the call is inconclusive, the potency comes from a doubtful curve fit. A structure can be active in one record and inactive in another. The source made the active and inactive calls. Calls come from the whole dose curve; as a rule, active = well fitted curve in the direction sought with a large enough effect in the repeat runs; inconclusive = weak or mixed curves; inactive = no such curve, though single readings can be large; an effect the other way counts as inactive or inconclusive.
# Assays:
# [1] = A CellTox Green Cytotoxicity Assay to monitor cytotoxicity in HepG2 cells - 24 hour (AID 1224878); conditions: CellTox Green fluorescence; series mostly up to 76.8 µM; note: nearly all actives have a fitted effect of over 45% in size
# Method in brief: (§1)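 Measurements at 0, 8, 16, 24, 32 and 40 h of treatment captured CellTox Green fluorescence in HepG2 cells that had been co-plated with reagent and preincubated 5 h at 37 C/5% CO2.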
# [2] = A CellTox Green Cytotoxicity Assay to monitor cytotoxicity in HEK293 cells - 32 hour (AID 1224881); conditions: CellTox Green fluorescence; series mostly up to 76.8 µM; note: nearly all actives have a fitted effect of over 40% in size
# Method in brief: (§2)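 Tox21 screen in HEK293: membrane-impermeant cyanine dye fluoresces on binding dead-cell DNA; compound pinned 5 h post-seeding, plates held at 37 C, signal read repeatedly through 40 h.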
# [3] = qHTS assay to identify small molecule antagonists of the androgen receptor (AR) signaling pathway using the MDA cell line in the presence of 0.5 nM R1881 - cell viability counter screen (AID 1259242); conditions: MDA-kb2 viability, CellTiter-Fluor protease fluorescence, 16 h; series mostly up to 92.4 µM; note: nearly all actives have a fitted effect of over 45% in size
# Method in brief: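 Concentration-response screen of compounds for toxicity in MDA-kb2 reporter cells: 16 hr at 37C with 0.5 nM R1881, endpoint live-cell protease fluorescence measured in the reporter wells.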
# [4] = A CellTox Green Cytotoxicity Assay to monitor cytotoxicity in HepG2 cells - 40 hour (AID 1224879); conditions: CellTox Green fluorescence; series mostly up to 76.8 µM; note: nearly all actives have a fitted effect of over 40% in size
# Method in brief: as §1
# [5] = qHTS RealTime-Glo MT Cell Viability Assay in HEK293 cells - 24 hour (AID 1224886); conditions: RealTime-Glo luminescence; series mostly up to 76.8 µM; note: nearly all actives have a fitted effect of over 50% in size
# Method in brief: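 Cells + reagent dispensed (600 cells/well, HEK293) → 5 h at 37 C/5% CO2 → 23 nL compound in DMSO pinned → 40 h at 37 C → luminescence read at 0, 8, 16, 24, 32, 40 h.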
# [6] = A CellTox Green Cytotoxicity Assay to monitor cytotoxicity in HEK293 cells - 8 hour (AID 1224884); conditions: CellTox Green fluorescence; series mostly up to 76.8 µM; note: nearly all actives have a fitted effect of over 35% in size
# Method in brief: as §2
# [7] = A CellTox Green Cytotoxicity Assay to monitor cytotoxicity in HepG2 cells - 8 hour (AID 1224890); conditions: CellTox Green fluorescence; series mostly up to 76.8 µM; note: nearly all actives have a fitted effect of over 45% in size
# Method in brief: as §1
# [8] = A CellTox Green Cytotoxicity Assay to monitor cytotoxicity in HepG2 cells - 32 hour (AID 1224883); conditions: CellTox Green fluorescence; series mostly up to 76.8 µM; note: nearly all actives have a fitted effect of over 50% in size
# Method in brief: as §1
# [9] = qHTS assay to identify small molecule antagonists of the estrogen receptor alpha (ER-alpha) signaling pathway using the BG1 cell line in the presence of 0.1 nM 17-beta-estradiol - cell viability counter screen (AID 1259241); conditions: VM7Luc4E2 (BG1) viability, CellTiter-Fluor protease, 22 h, 0.1 nM estradiol agonist added; series mostly up to 92.4 µM; note: nearly all actives have a fitted effect of over 40% in size
# Method in brief: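 Viability in VM7Luc4E2 cells after 22 hr compound exposure under 0.1 nM 17beta-estradiol stimulation, by CellTiter-Fluor.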
# [10] = qHTS RealTime-Glo MT Cell Viability Assay in HEK293 cells - 8 hour (AID 1224887); conditions: RealTime-Glo luminescence; series mostly up to 76.8 µM; note: nearly all actives have a fitted effect of over 50% in size
# Method in brief: (§3)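 HEK293 + NanoLuc + prosubstrate, 600 cells/well; 5 h, 37 C/5% CO2; compound 23 nL in DMSO by pintool; 37 C; luminescence read at 0, 8, 16, 24, 32 and 40 h time points.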
# [11] = A CellTox Green Cytotoxicity Assay to monitor cytotoxicity in HEK293 cells - 16 hour (AID 1224888); conditions: CellTox Green fluorescence; series mostly up to 76.8 µM; note: nearly all actives have a fitted effect of over 35% in size
# Method in brief: as §2
# [12] = qHTS RealTime-Glo MT Cell Viability Assay in HepG2 cells - 0 hour (AID 1224889); conditions: RealTime-Glo luminescence; series mostly up to 76.8 µM; note: nearly all actives have a fitted effect of over 50% in size
# Method in brief: (§4)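 Real-time, nonlytic viability: 600 HepG2 cells/well mixed with NanoLuc enzyme plus prosubstrate; 5 h settle, compound (DMSO) added by pintool; luminescence monitored over 40 h at 37 C.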
# [13] = qHTS RealTime-Glo MT Cell Viability Assay in HEK293 cells - 0 hour (AID 1224880); conditions: RealTime-Glo luminescence; series mostly up to 76.8 µM; note: nearly all actives have a fitted effect of over 45% in size
# Method in brief: as §3
# [14] = qHTS RealTime-Glo MT Cell Viability Assay in HepG2 cells - 16 hour (AID 1224885); conditions: RealTime-Glo luminescence; series mostly up to 76.8 µM; note: nearly all actives have a fitted effect of over 50% in size
# Method in brief: as §4
# [15] = A CellTox Green Cytotoxicity Assay to monitor cytotoxicity in HepG2 cells - 0 hour (AID 1224882); conditions: CellTox Green fluorescence; series mostly up to 76.8 µM; note: nearly all actives have a fitted effect of over 35% in size
# Method in brief: as §1
# [16] = target: Estrogen receptor (Homo sapiens) (UniProt P03372); assay: qHTS assay to identify small molecule antagonists of the estrogen receptor alpha (ER-alpha) signaling pathway using the BG1 cell line in the presence of 0.1 nM 17-beta-estradiol (AID 1259244); conditions: VM7Luc4E2 (BG1) ERE-luciferase, antagonist mode, 0.1 nM E2, 22 h; series mostly up to 92.4 µM; note: nearly all actives have a fitted effect of over 50% in size
# Sequence of UniProt P03372 (P03372 whole entry, looked up): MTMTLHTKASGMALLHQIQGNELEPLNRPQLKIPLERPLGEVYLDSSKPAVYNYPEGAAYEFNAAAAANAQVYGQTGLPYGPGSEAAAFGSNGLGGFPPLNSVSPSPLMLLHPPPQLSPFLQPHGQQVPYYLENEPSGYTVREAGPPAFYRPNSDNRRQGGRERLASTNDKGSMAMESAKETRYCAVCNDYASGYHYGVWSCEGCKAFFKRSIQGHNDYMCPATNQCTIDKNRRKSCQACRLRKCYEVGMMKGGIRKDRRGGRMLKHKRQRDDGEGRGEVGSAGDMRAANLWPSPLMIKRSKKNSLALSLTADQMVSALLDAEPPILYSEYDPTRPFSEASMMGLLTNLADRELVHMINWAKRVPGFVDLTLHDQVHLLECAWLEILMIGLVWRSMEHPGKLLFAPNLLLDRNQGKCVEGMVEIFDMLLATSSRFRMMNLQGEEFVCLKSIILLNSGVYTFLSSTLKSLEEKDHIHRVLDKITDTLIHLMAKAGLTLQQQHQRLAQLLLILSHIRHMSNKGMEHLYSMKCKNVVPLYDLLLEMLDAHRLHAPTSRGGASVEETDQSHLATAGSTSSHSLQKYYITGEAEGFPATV
# Method in brief: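 Compounds were tested against 0.1 nM (final) 17beta-estradiol in VM7Luc4E2 cells, which express full-length ER-alpha and an ERE-luciferase reporter; luminescence was recorded following 22 h exposure.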
# Potency is the fitted concentration of half-maximal effect; tags give direction and shape of the fitted curve.
smiles,measurement,setting,value
Clc1cc(C(Cl)(Cl)Cl)cnc1Cl,Potency,[1],"inconclusive: 49 µM [activator, single point]"
same,Potency,[2],"inconclusive: 24.5 µM [activator, partial curve]"
same,Potency,[3],"inconclusive: 27.3 µM [cytotoxic, partial curve]"
Oc1ccc(Cl)c(Cl)c1Cl,Potency,[1],"inconclusive: 57 µM [activator, partial curve, poor fit]"
same,Potency,[4],"inconclusive: 57 µM [activator, single point]"
same,Potency,[5],"inconclusive: 50.8 µM [cytotoxic, single point]"
C=CCO,Potency,[1],active: 24.5 µM
same,Potency,[6],active: 27.5 µM
same,Potency,[7],active: 27.5 µM
CC/C(=N\OC/C=C/Cl)C1=C(O)CC(C2CCOCC2)CC1=O (centres undefined),Potency,[1],inactive
same,Potency,[8],inactive
CCOC(=O)Nc1cccc(OC(=O)Nc2ccccc2)c1,Potency,[1],"inconclusive: 61.6 µM [activator, single point]"
same,Potency,[4],"inconclusive: 61.6 µM [activator, single point]"
same,Potency,[9],inactive
CCCC1COC(Cn2cncn2)(c2ccc(Cl)cc2Cl)O1 (centres undefined),Potency,[1],"inconclusive: 61.6 µM [activator, single point]"
same,Potency,[4],"inconclusive: 62.8 µM [activator, single point] and inconclusive: 49 µM [activator, single point]"
same,Potency,[8],"inconclusive: 62.8 µM [activator, single point] and inconclusive: 54.9 µM [activator, single point]"
same,Potency,[6],"inconclusive: 55.9 µM [activator, single point]"
same,Potency,[10],"inconclusive: 25 µM [cytotoxic, partial curve] and inconclusive: 38.9 µM [cytotoxic, partial curve]"
same,Potency,[11],"inconclusive: 55.9 µM [activator, single point]"
same,Potency,[12],"inconclusive: 49 µM [cytotoxic, partial curve, poor fit]"
O=C(O)CCCc1ccc(N(CCCl)CCCl)cc1,Potency,[1],inactive
same,Potency,[13],"inconclusive: 10.7 µM [falling, single point]"
same,Potency,[10],"inconclusive: 10.7 µM [cytotoxic, single point]"
CC(C)(C)c1cc([N+](=O)[O-])cc(C(C)(C)C)c1O,Potency,[1],"inconclusive: 54.9 µM [activator, single point]"
same,Potency,[4],"inconclusive: 54.9 µM [activator, single point]"
same,Potency,[8],"inconclusive: 54.9 µM [activator, single point]"
same,Potency,[14],"inconclusive: 12.3 µM [cytotoxic, full curve]"
same,Potency,[5],"inconclusive: 7.76 µM [cytotoxic, full curve]"
same,Potency,[10],"inconclusive: 12.3 µM [cytotoxic, partial curve]"
same,Potency,[9],"inconclusive: 15.4 µM [cytotoxic, full curve]"
Clc1cccc2ccccc12,Potency,[1],inactive
same,Potency,[2],"inconclusive: 54 µM [activator, single point]"
CC(C)OS(C)(=O)=O,Potency,[1],inactive
same,Potency,[2],inactive
CC(C)(C)C(O)C(Oc1ccc(-c2ccccc2)cc1)n1cncn1 (centres undefined),Potency,[1],"inconclusive: 54.9 µM [activator, partial curve, poor fit]"
same,Potency,[4],"inconclusive: 54.9 µM [activator, single point]"
same,Potency,[8],"inconclusive: 54.9 µM [activator, single point]"
same,Potency,[10],"inconclusive: 43.6 µM [cytotoxic, partial curve]"
Oc1cc(Cl)ccc1Cl,Potency,[1],"inconclusive: 24.5 µM [activator, single point]"
same,Potency,[4],"inconclusive: 12.3 µM [activator, full curve, poor fit]"
same,Potency,[8],"inconclusive: 12.3 µM [activator, partial curve, poor fit]"
same,Potency,[5],inactive
Nc1nc(N)c(N)c(N)n1,Potency,[1],active: 55.2 µM
same,Potency,[2],active: 49.2 µM
same,Potency,[15],active: 49.2 µM
OC(c1ccc(Cl)cc1)(c1cncnc1)c1ccccc1Cl (centres undefined),Potency,[1],active: 25 µM and inactive
same,Potency,[13],"inconclusive: 55.9 µM [falling, single point]"
same,Potency,[2],active: 25 µM
same,Potency,[14],"inconclusive: 49 µM [cytotoxic, partial curve]"
same,Potency,[5],"inconclusive: 24.5 µM [cytotoxic, partial curve]"
same,Potency,[10],"inconclusive: 34.7 µM [cytotoxic, partial curve]"
same,Potency,[9],"inconclusive: 69.8 µM [cytotoxic, single point]"
same,Potency,[16],"inconclusive: 69.8 µM [inhibitor, single point] and inconclusive: 68.6 µM [inhibitor, single point]"

# From PubChem BioAssay (Tox21)
